From paper PMC4336329 (PLoS ONE, 2015)
In all, about 310,000 compounds went through this assay and about 14,000 (4.5%) showed an effect of 50% or more. The effect is printed as a negative number. This is one part of the list.

The compounds below were run against human ether-à-go-go-related gene (hERG) potassium channel (human, UniProt Q12809) (assay: primary screen, population patch clamp on CHO cells stably expressing hERG).
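Further: peak tail current of the secondary pulse compared with the same well before compound.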

human ether-à-go-go-related gene (hERG) potassium channel, sequence (Q12809 whole entry, looked up): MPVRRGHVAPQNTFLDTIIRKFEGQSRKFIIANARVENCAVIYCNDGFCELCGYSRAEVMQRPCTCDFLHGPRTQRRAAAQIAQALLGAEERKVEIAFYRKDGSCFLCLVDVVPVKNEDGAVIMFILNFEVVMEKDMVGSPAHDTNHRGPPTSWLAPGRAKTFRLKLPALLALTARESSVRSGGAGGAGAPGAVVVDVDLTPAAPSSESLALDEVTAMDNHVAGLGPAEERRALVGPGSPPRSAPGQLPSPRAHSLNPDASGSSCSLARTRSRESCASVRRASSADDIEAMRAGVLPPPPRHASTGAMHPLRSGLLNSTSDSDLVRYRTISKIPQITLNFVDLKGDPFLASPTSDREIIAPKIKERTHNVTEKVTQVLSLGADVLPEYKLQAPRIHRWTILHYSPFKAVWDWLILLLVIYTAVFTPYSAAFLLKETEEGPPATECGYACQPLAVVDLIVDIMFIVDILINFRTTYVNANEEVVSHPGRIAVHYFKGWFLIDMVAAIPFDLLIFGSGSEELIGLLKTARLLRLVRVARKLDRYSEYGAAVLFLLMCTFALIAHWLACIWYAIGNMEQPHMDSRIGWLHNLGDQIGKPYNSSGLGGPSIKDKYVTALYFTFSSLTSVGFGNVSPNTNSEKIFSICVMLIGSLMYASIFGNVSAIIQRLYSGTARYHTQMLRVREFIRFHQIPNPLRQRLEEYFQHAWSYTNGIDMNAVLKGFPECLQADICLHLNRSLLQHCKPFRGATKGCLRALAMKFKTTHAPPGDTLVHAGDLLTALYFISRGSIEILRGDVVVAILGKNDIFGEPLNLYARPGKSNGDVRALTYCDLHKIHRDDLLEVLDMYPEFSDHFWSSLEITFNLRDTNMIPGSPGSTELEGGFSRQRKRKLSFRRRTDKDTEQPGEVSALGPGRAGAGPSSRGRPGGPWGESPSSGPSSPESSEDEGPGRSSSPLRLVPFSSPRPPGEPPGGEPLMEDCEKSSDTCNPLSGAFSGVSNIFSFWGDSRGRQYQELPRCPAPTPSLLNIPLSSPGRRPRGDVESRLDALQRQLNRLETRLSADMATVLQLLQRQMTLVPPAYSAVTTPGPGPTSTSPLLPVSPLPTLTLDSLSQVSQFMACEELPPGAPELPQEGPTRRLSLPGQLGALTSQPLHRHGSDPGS

Row | Structure (SMILES) | hERG current change (%, negative = inhibition) at 10uM [%]
1 | CCCCOC(=O)Nc1ccc(C(=O)OCCC)cc1 | -12.9
2 | COc1ccccc1C(=O)NCCSCc1c(F)cccc1Cl | -15.4
3 | N#CC1(NC(=O)COC(=O)c2ccccc2[N+](=O)[O-])CCCCC1 | -5.4
4 | CCN(CC)CCCNC(=O)CCC(=O)Nc1ccc2nc(N3CCCCC3)cc(C)c2c1 | 3.75
5 | Cc1nnc(N/N=C/c2ccccc2O)n1N | -7.86
6 | O=S(=O)(Cc1ccccc1)Nc1cccc(F)c1 | 15.2
7 | O=C(CNc1ccccc1Cl)N/N=C1\CCCc2ccccc21 | 36.1
8 | CC(NC(=O)COC(=O)c1cccs1)c1ccccc1 (centres unmarked) | 23
9 | C/C(O)=C(/N=O)C(=O)Nc1ccccc1 | 14.1
10 | Cc1ccc(-c2noc(CCC(=O)N3CCN(c4cccc(C(F)(F)F)c4)CC3)n2)cc1 | 5.07
11 | Cc1nc2ccccc2n1CC(=O)OCC(=O)NCc1ccccc1 | 12.8
12 | CCCn1c(SCC(=O)Nc2cccc(S(=O)(=O)N3CCCC3)c2)n[nH]c1=O | 15.4
13 | CC(C)(C)n1nc2c(c1NC(=O)Cc1ccc(F)cc1)CS(=O)(=O)C2 | 0.588
14 | S=C(NCCc1ccccc1)N1CCn2cccc2C1c1cccnc1 (centres unmarked) | -42
15 | CCc1cc(CNC(=O)c2ccc(OC3CCN(C(C)=O)CC3)c(OC)c2)on1 | 7.52
16 | CC(=O)C(C)Oc1ccc2c3c(c(=O)oc2c1C)CCCC3 (centres unmarked) | -8.37
17 | O=c1cc([O-])n(Cc2ccc(F)cc2)c(=O)[nH]1.[NH4+] | 21.7
18 | CC(C)(C)OC(=O)N/N=C\c1ccc(OC(=O)c2cccs2)cc1 | 4.54
19 | O=c1c2ccccc2nc(SCc2cn3ccsc3n2)n1-c1ccccc1 | -1.3
20 | Cc1onc(C(=O)N2CCN(c3ccccc3F)CC2)c1-c1ccccc1Cl | -7.76
21 | CCN(CC)CCCn1c2c(c(SCC(=O)Nc3ccc(F)c(F)c3)nc1=O)CCC2 | -55.1
22 | Cc1cccc[n+]1CC(=O)/C=C1\N(C)c2ccccc2C1(C)C.[Cl-] | 23.5

Row | Structure (SMILES) | hERG current change (%, negative = inhibition) at 10uM [%]
23 | CC(NC(=O)c1cc2cc(Cl)ccc2oc1=N)c1ccccc1 (centres unmarked) | 7.55
24 | COc1ccc([C@@H]2[C@@H]3C(=O)N(C(C)(C)C)C(=O)[C@@H]3[C@]3(CC(C)C)C(=O)N(c4ccccc4)C(=O)N23)cc1 | 4.63
25 | O=C(CN1C(=O)C2C3CCC(C3)C2C1=O)OCC(=O)c1cccc([N+](=O)[O-])c1 (centres unmarked) | 15.2
26 | Cc1cc(OCc2ccc(C(=O)n3cccn3)o2)ccc1Cl | -0.553
27 | Cc1cccc(-n2c(C)cc(/C=C3/C(=N)N4C(c5ccccc5)=CSC4=NC3=O)c2C)c1 | -1.18
28 | O=C(O)C(Cc1ccccc1)NS(=O)(=O)c1ccc(Cl)cc1 (centres unmarked) | 18.1
29 | CC(=O)c1ccc(N2C(=O)[C@@H]3[C@H](C2=O)[C@H]2c4ccccc4C=NN2[C@@H]3C(C)=O)cc1 | 25.3
30 | COc1ccc(C(CCN2CCOCC2)c2c(O)cc(OC)cc2OC)cc1 (centres unmarked) | -47.1
31 | CCOc1ccc(C(=O)NCC(=O)N2CCC3(CC2)NCCc2[nH]cnc23)cc1 | 13.5
32 | O=C(NNC(=O)c1ccco1)c1cccc(Br)c1 | 0.684
33 | O=C(/C=C/c1ccccc1Br)c1ccc2c(c1)OCO2 | 10.8
34 | CCOC(=O)c1sc(NC(=O)c2ccccc2)cc1C | 5.32
35 | COc1ccc(N(C(=O)Cn2nnc(-c3ccc(F)cc3)n2)C(C)C(=O)NC2CCCC2)cc1OC (centres unmarked) | 4.8
36 | Cc1[nH][nH]c(=O)c1C(c1ccc(O)c([N+](=O)[O-])c1)c1c(C)[nH][nH]c1=O | 18.8
37 | CCC(=O)OCC(=O)[C@@]1(OC(=O)CC)[C@@H](C)C[C@H]2[C@@H]3CCC4=CC(=O)C=C[C@]4(C)[C@@]3(Cl)[C@@H](O)C[C@@]21C | 1.06
38 | Cn1cccc1Cc1nnc(SCC(=O)NCC2CCCO2)n1-c1ccc(F)cc1 (centres unmarked) | -1.48
39 | C=CCN1c2ccccc2[C@]23C[C@@H](C(=O)OC)N(C(=O)OCC)C2=NC(C(=O)OC)=C(C(=O)OC)[C@H]13 | -13.9
40 | CCn1nc([N+](=O)[O-])c(C(C#N)c2nc3ccccc3n2C)c(Cl)c1=O (centres unmarked) | 2.97
41 | Cc1cccc(NC(=O)CSCc2nc3c(nnn3Cc3ccc(F)cc3)c(=O)[nH]2)c1C | -0.573
42 | COc1ccc(Oc2nccc(-c3ccc(Cl)cc3)n2)cc1 | -3.38
43 | CC1(C)Cc2nc3sc4c(=O)n(CC(=O)NCc5ccco5)cnc4c3cc2CO1 | -10.7
44 | Cc1ccc(CC(=O)c2ccc(Cl)cc2)cc1 | 10.8

Row | Structure (SMILES) | hERG current change (%, negative = inhibition) at 10uM [%]
45 | CC1CCCCC1NC(=O)NC(=O)COC(=O)C1=NN(c2ccccc2)C(=O)CC1 (centres unmarked) | 4.08
46 | Cn1c(=O)oc2cc(S(=O)(=O)N3CCC(C(=O)NCc4ccccc4)CC3)ccc21 | -6.54
47 | CCOC(=O)C(NC(C)=O)(Nc1ccc(S(=O)(=O)Nc2ccncn2)cc1)C(F)(F)F (centres unmarked) | 6.66
48 | CC1CCC2(CC1)NC(=O)N(CC(=O)Nc1ccc3c(c1)OCCO3)C2=O (centres unmarked) | 11.5
49 | CCc1cccc(CC)c1NC(=O)c1ccccc1 | 12
50 | Cc1ccc(N(C(=O)CNC(=O)c2ccco2)C(C(=O)NC2CCCC2)c2cccnc2)cc1C (centres unmarked) | -0.354
51 | CC(NC(=O)Cn1ccsc1=N)C12CC3CC(CC(C3)C1)C2.Cl (centres unmarked) | -34.4
52 | CCOc1ccccc1CN1C2CCC1CC(c1ccc(C)cc1)C2 (centres unmarked) | -60.9
53 | Cc1cc2ccccc2n1CCNC(=O)c1ccc(Br)o1 | -7.12
54 | O=C(NCCc1cn2ccccc2n1)c1cc(COc2ccc3ncccc3c2)on1 | -65.7
55 | Cc1cccc(C)c1NC(=O)N1CC=C(n2c(=O)[nH]c3ccccc32)CC1 | 6.14
56 | O=C(CSC1=NNC(c2ccccn2)S1)Nc1cccc(Cl)c1 (centres unmarked) | 12.6
57 | Cc1ccc(C)c(NC(=O)CN(C)C(=O)c2ccc(Cl)nc2)c1 | -7.48
58 | S=c1[nH]ccn1-c1c(Cl)cccc1Cl | 24.4
59 | CC(=O)c1ccc(N2CCN(S(=O)(=O)c3cn(C)c(C)n3)CC2)cc1 | 20.9
60 | COc1ccc(CNCCC2(Cc3ccccc3)CC(C)N(C)CC2C)cc1OC.Cl (centres unmarked) | 25.3
61 | COCCN(CCOC)c1nc(-c2ccc(C)cc2)nc2ccccc12.Cl | -65.4
62 | CN(C)S(=O)(=O)c1cc(C(=O)OCCn2cnc3c2c(=O)n(C)c(=O)n3C)ccc1Cl | -39.7
63 | CCCCn1c(N)c(N(CC)C(=O)CSCc2c(C)noc2C)c(=O)[nH]c1=O | 7.15
64 | O=C(NCCCCNC(=O)c1ccccc1F)c1ccccc1F | 14.8
65 | COc1cccc(-c2csc(N3CCN(S(=O)(=O)c4ccc(F)cc4)CC3)n2)c1 | -10.2
66 | Cc1cc(Cl)ccc1OCC(=O)OCC(=O)c1c(N)n(C)c(=O)n(C)c1=O | -26.5

Row | Structure (SMILES) | hERG current change (%, negative = inhibition) at 10uM [%]
67 | Cc1ccc(NS(=O)(=O)c2cc(C(=O)OCC(=O)NCC3CCCO3)ccc2C)cc1 (centres unmarked) | -7.69
68 | O=S(=O)(c1ccccc1)N1CCN(CC(O)COc2ccc3c(c2)CCC3)CC1 (centres unmarked) | -28.7
69 | Cc1ccc(S(=O)(=O)NCCC(=O)N2CC(C)OC(C)C2)cc1 (centres unmarked) | 16.7
70 | CCc1cccc2c(C(=O)CSc3nncn3C)c[nH]c12 | 7.69
71 | COc1ccc(-c2nc3c(n2O)CCc2c-3no[n+]2[O-])cc1 | 10.6
72 | COc1cccc(C(=O)Nc2c(C)nn(-c3ccccc3)c2C)c1 | 11.3
73 | Cl.Fc1ccc(Nc2nc(N3CCOCC3)c3ccccc3n2)cc1 | -2.91
74 | CCN(CC(=O)NC(C)(C)C)C(=O)CN1c2cccc3cccc(c23)S1(=O)=O | 15.5
75 | CSc1nnc(-c2cc3ccccc3cc2O)n1C | -11
76 | O=CN1CCN(C(=O)c2cccc([N+](=O)[O-])c2)CC1 | -4.11
77 | CCCCN(CC)CCCNC(=S)Nc1ccc2nc(N3CCN(C)CC3)cc(C)c2c1 | 5.19
78 | COC(=O)c1ccc(NC(=O)CCN2CCN(CCC(=O)Nc3ccc(C(=O)OC)cc3)CC2)cc1 | -15.4
79 | CCC(=O)c1ccc(OCC(=O)OCC(=O)N2CCN(c3ccc(OC)cc3)CC2)cc1 | 19
80 | CCC(Oc1ccccc1)C(=O)Nc1ccccc1C(=O)N1CCCCC1 (centres unmarked) | -9.09
81 | CCCC(=O)Nc1nc2n(n1)C(c1ccccc1)CC(=O)N2 (centres unmarked) | -1.76
82 | CN(C)C1C(=O)c2ccccc2C1=O | -7.61
83 | COCCNCCCOc1ccc(C(C)(C)c2ccccc2)cc1.O=C(O)C(=O)O | -29.3
84 | CCCCN(C)Cc1c(C)[nH]c2ccccc2c1=O | -2.26
85 | COC(=O)CNC(=O)COC(=O)/C=C/c1ccc(F)cc1 | 9.43
86 | O=P(/C(=N/O)N1CCCCC1)(N1CCOCC1)N1CCOCC1 | 2.31
